In paper PMC4336329 (PLoS ONE, 2015):
About 2,200 (0.71%) of roughly 310,000 compounds showed an effect of 50% or more. The effect is printed as a negative number. This is one part of the list.

These compounds were tested against human ether-à-go-go-related gene (hERG) potassium channel (human, UniProt Q12809) (assay: primary screen, population patch clamp on CHO cells stably expressing hERG).
Sequence of human ether-à-go-go-related gene (hERG) potassium channel (Q12809 whole entry, looked up): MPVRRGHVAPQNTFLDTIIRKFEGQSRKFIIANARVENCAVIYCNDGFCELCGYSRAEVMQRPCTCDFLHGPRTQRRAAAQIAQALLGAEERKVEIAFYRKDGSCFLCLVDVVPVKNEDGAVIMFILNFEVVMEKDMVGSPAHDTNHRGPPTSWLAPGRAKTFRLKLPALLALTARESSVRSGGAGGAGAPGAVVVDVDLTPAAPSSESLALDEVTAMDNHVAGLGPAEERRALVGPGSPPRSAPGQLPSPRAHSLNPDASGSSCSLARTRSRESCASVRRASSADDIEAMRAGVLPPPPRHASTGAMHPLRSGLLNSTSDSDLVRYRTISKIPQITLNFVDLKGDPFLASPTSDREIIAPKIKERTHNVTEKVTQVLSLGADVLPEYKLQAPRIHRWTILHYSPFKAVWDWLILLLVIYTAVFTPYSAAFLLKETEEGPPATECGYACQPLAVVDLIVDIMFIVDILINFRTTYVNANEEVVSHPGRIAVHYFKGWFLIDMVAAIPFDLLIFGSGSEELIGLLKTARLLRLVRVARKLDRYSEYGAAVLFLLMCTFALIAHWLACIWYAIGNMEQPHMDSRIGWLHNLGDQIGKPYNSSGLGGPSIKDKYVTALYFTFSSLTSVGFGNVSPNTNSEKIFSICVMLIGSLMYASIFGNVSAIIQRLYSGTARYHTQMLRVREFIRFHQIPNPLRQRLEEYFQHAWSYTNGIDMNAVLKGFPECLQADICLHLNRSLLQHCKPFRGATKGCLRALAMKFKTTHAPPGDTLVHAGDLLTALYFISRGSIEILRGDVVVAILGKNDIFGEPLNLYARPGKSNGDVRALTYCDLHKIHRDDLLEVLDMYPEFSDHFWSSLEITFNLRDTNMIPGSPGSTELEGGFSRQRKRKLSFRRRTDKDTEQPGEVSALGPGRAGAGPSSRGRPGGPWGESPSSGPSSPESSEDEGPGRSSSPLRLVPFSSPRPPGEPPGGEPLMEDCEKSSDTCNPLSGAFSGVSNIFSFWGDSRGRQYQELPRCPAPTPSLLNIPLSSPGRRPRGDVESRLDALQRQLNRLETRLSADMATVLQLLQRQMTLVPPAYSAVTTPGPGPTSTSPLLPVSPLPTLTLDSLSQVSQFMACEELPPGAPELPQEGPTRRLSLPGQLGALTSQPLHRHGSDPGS

Structure (SMILES)	hERG current change (%, negative = inhibition) at 1uM
Cc1nc(N2CCCCC2)c(C#N)c(C)c1[N+](=O)[O-]	22.3%
Cc1cc(C(=O)Cn2nc(C(=O)O)c3ccccc3c2=O)c(C)n1-c1ccc(OC(F)F)cc1	9.19%
Cn1ncc(N=Cc2ccc([N+](=O)[O-])cc2)c1C(=O)Nc1ccccc1	20.8%
Cc1ccc(/C(O)=C2\C(=O)C(=O)N(c3cc(C)on3)C2c2cccc(Cl)c2)cc1 (stereo not shown)	21.3%
CNc1cc(N2CCN(S(=O)(=O)N(C)C)CC2)ccc1[N+](=O)[O-]	0.411%
CC(C)=CCOc1c2occc2cc2ccc(=O)oc12	-1.76%
COc1cccc(-c2cc(C(=O)Nc3ccc([N+](=O)[O-])cn3)c3ccccc3n2)c1	-20.7%
COCCSc1nnc(NC(=O)CS(=O)(=O)c2ccccc2)s1	13.8%
COc1ccc(OC)c(-n2nnnc2SCC(=O)NCc2ccc3c(c2)OCO3)c1	-2.98%
O=C(COC(=O)/C=C/c1ccccc1[N+](=O)[O-])NC1CCS(=O)(=O)C1 (stereo not shown)	12.5%
CC(NC(=O)CNC(=O)c1sc2ccccc2c1Cl)c1cccnc1 (stereo not shown)	11.1%
COc1cc(OC)c(NC2=CC(=O)C(=O)c3ccccc32)cc1Cl	13.6%
CC1CCN(CCCCOc2cccc(Br)c2)CC1.O=C(O)C(=O)O	-47.8%
O=C(Cn1cc(S(=O)(=O)Cc2ccccc2)c2ccccc21)N1CCOCC1	12.2%
Cc1cccc(-c2cc3c(N=O)c4ccccc4c-3n[nH]2)c1	16.9%
COc1ccc(-n2nc(C(=O)Nc3ccc(OC)c(OC)c3)c3c4ccccc4n(C)c3c2=O)cc1	7.44%
O=C(c1c(F)c(F)c(F)c(F)c1F)N1CCc2ccccc21	18.5%
Cc1ccc(S(=O)(=O)n2c(N)nc3ccccc32)cc1	11.3%
Cc1ccccc1NC(=O)C1Cc2ccccc2CN1C(=O)OCc1ccccc1 (stereo not shown)	11.6%
COc1ccc(-c2n[nH]c(=S)n2-c2ccc3c(c2)OCCO3)cc1	7%
CCOc1ccc(N2C(=O)Nc3ccccc3C2(O)C(=O)NCc2ccco2)cc1 (stereo not shown)	1.3%
CCCCN1CC(=O)N2[C@H]3c4ccc(OC)cc4OC[C@@H]3[C@H](c3ccccc3)[C@]2(C)C1=O	6.54%

Structure (SMILES)	hERG current change (%, negative = inhibition) at 1uM
COc1ccc(NC(=O)C2C3CCC(O3)C2C(=O)O)c(OC)c1 (stereo not shown)	21.5%
CCc1nc2c(C#N)c(-c3ccc(Cl)cc3)ccn2n1	6.82%
S=C(NCc1ccco1)N1CCC(c2nc3ccccc3o2)CC1	3.86%
CN(Cc1ccc(F)cc1)S(=O)(=O)c1nnc(NC(=O)c2ccccc2Br)s1	13.6%
COC(=O)CNC(=O)c1cn(CC(C)C)c(=O)c2cc(OC)c(OC)cc12	-1.19%
COc1cccc(NC(=O)COc2ccc(Br)c(C)c2)c1	17.7%
CC1=C(C(=O)OC(C)C)C(c2ccccn2)n2ncnc2N1 (stereo not shown)	4.25%
O=c1c2cnn(-c3ccccc3)c2ncn1Cc1ccccn1	14.1%
O=C(NCCCCCCNC(=O)OC1CCS(=O)(=O)C1)OC1CCS(=O)(=O)C1 (stereo not shown)	13.4%
N#C/C(=C/c1ccc(N2CCOCC2)o1)c1ccc(Cl)cc1	2.32%
CCCN(Cc1cc2cc(OC)ccc2[nH]c1=O)C(=O)c1ccco1	-0.0107%
CCOc1ccc(OCCCCN2CCCC2)cc1.O=C(O)C(=O)O	11.6%
CCN(CC)CC(=O)c1c[nH]c2ccccc12	6.08%
COc1ccccc1C(=O)Nc1ccccc1N1CCCCC1	5.41%
CC(C)(C)C1CCc2[nH]nc(C(=O)O)c2C1 (stereo not shown)	15.2%
COc1ccc(NC(=S)NC(=O)/C=C/c2cccs2)cc1	12.9%
O=C(Nc1ccc(N2CCCCC2)c(Cl)c1)c1ccc(N2CCOCC2)c([N+](=O)[O-])c1	13.3%
Cc1ccc(-n2c(COc3cccc(C)c3)n[nH]c2=S)cc1	3.06%
O=C(Nc1cccc(-c2ccc3nncn3n2)c1)c1ccco1	6.16%
CCCC(=O)C1=C(O)C(C(=O)OC)C(C)(C)CC1=N (stereo not shown)	10.3%
CN(C(=O)CSC(=O)c1ccccc1)c1ccccc1	29.5%
COc1ccc(CN2CCN(C(=O)c3ccco3)CC2)cc1OC.O=C(O)C(=O)O	20%

Structure (SMILES)	hERG current change (%, negative = inhibition) at 1uM
COc1ccccc1NS(=O)(=O)c1cccc(C(=O)NCC2(N(C)C)CCCCC2)c1	1.73%
O=C(NCCN1C(=O)S/C(=C\c2cccnc2)C1=O)c1cccc(OC(F)F)c1	0.344%
CSc1nc(-c2ccco2)nn1C(=O)c1ccccc1	12.7%
CCn1ccnc1CN1CCC(n2nccc2NC(=O)CCc2ccccc2)CC1	15.9%
O=C(CCN1C(=O)c2ccccc2C1=O)Nn1cnnc1	3.03%
C=CCN1C(=O)CN=C1Nc1cc(C)ccc1C.Cl	7.51%
O=C(NCc1ccccc1)C(c1ccccc1)N(Cc1ccc2c(c1)OCO2)C(=O)Cc1cccs1 (stereo not shown)	13.9%
Cc1cc(C)n2nc(SCC(N)=O)nc2n1	13.1%
CNC(=O)[C@@]1(Cc2ccccc2)C=C[C@@H](C)N1C(=O)OC	11.7%
COc1ccc(CN2C(=O)c3ccc(C(=O)O)cc3C2=O)cc1	12.3%
CN1CCN(C(=O)CCN2C(=O)/C(=C/c3cccc(Br)c3)SC2=S)CC1	16.7%
Cc1cc[n+](CC(=O)Nc2cccc(C)c2)cc1.[Cl-]	12.1%
CCOc1ccc(CCNC(=O)c2ccc(N3CCCC3=O)cc2)cc1OCC	13.2%
CCOC(=O)c1cccc(NC(=O)c2ccc(N(C)C)cc2)c1	2.71%
CCCCC1C2=C(CC(C)(C)CC2=O)OC2=C1C(=O)CC(C)(C)C2	7.94%
COc1ccc(N2CCN(C(=O)c3ccc(Oc4ccc(C(F)(F)F)cn4)cc3)CC2)cc1	-7.25%
CCCCCCC(=O)N(O)C1CC(=O)N(c2ccc(Br)cc2)C1=O (stereo not shown)	14%
O=C(NNC(=O)c1c(O)c2ccccc2[nH]c1=O)c1ccccc1Br	7.81%
O=C(Nc1ccc(C(=O)O)cc1)/C(=C\C=C\c1ccccc1)NC(=O)c1ccccc1Br	-2.17%
COCCCN(C(=O)CSCc1c(C)noc1C)c1c(N)n(Cc2ccccc2)c(=O)[nH]c1=O	15.6%
Cc1ccc(OCC(O)CNCc2ccc(F)cc2)cc1 (stereo not shown)	-14.2%
COc1ccc(Cl)cc1NC(=O)c1cccnc1	9.45%

Structure (SMILES)	hERG current change (%, negative = inhibition) at 1uM
O=C(Nc1ccc2c(c1)OCO2)c1ccc(Br)c(S(=O)(=O)N2CCCC2)c1	17.7%
COc1ccc(CN(C)Cc2ccccc2)c(OC)c1OC	6.54%
Cn1c(=O)cc(SCC(=O)N2CCN(c3ccccn3)CC2)c2ccccc21	5.44%
CC(=O)N1CCN(C(=O)c2cc(-c3cccc4ccccc34)nc3ccccc23)CC1	-2.95%
COc1ccc(OC)c(NC(=O)C2CC(/C=C/c3ccccc3)=NO2)c1 (stereo not shown)	13.5%
Cn1c(=O)c2c(nc(CN3CCN(C(=O)c4ccco4)CC3)n2Cc2cccc(Cl)c2)n(C)c1=O	-18.5%
Cc1cc(NC(=O)CCNS(=O)(=O)c2ccc3[nH]c(=O)oc3c2)ccc1Br	13%
O=C(CNS(=O)(=O)c1ccccc1)N/N=C\c1ccc(Cl)cc1	7.62%
CCNC(=S)N/N=C/c1ccc(-c2ccccc2)o1	8.02%
Cc1ccccc1C(=O)NNC(=S)NC(=O)c1cccs1	23.1%
O=C1CCCN1CC(CN1CCOCC1)Sc1nnnn1-c1ccccc1 (stereo not shown)	8.06%
CCOC(=O)c1c(C)[nH]c(C)c1C(=O)COC(=O)c1cc2ccccc2cc1OC	10.8%
COCCN1Cc2cc3cc(C)ccc3nc2SC1=Nc1ccc(OC)cc1	9.8%
CC(C)Cc1nc2oc3c(=O)[nH]cnc3c2c2c1CCCC2	2.36%
CO.COc1ccc(Nc2nc(Nc3ccc(OC)cc3)nc(SC3=NCCS3)n2)cc1	16.7%
Cc1ccc(/C=C2\SC(=S)N(CC3CCCO3)C2=O)o1 (stereo not shown)	-2.26%
Cc1nc(-c2ccc(NC(=O)c3ccc(Br)o3)cc2)cs1	9.7%
COc1cccc(CNC(=O)c2cc(C)nc3ccccc23)c1	11%
CCCCCCc1cc2cc(S(=O)(=O)c3ccc(Cl)cc3)c(=O)oc2cc1O	9.31%
CCC1CCCCN1C/C=C/c1ccccc1[N+](=O)[O-] (stereo not shown)	-35%
Nc1ccccc1C(=O)NCc1ccc(Cl)cc1	2.77%
O=C(Nc1cc(S(=O)(=O)N2CCOCC2)ccc1N1CCOCC1)c1cc(=O)[nH]c2ccccc12	1.79%
